Results: the supplement of paper PMC4967469
IC50 is the fitted dose that halves viability relative to control wells, and lower means more sensitive; a fit beyond the top or the lowest dose is shown as a bound at that dose. For AUC the same curve is integrated over the 256-fold range of doses and scaled to a fraction; the more sensitive the line, the further below 1. For some assays here: The top dose, if marked as inferred, comes from the curve model; the source does not state it.

Assays:
Assay in all cases: Viability of human cancer cell lines after 72 h of drug (GDSC screen)
FH535 = compound: Cc1cc([N+](=O)[O-])ccc1NS(=O)(=O)c1cc(Cl)ccc1Cl [FH535]; conditions: top dose 32 µM; top dose inferred
Description: (§1)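 Human cancer cell lines in 384-well plates, medium with 10% serum, drug for 72 h over a 256-fold dose range (nine 2-fold or five 4-fold steps up to the top dose). Adherent lines were fixed and stained with the nucleic acid dye Syto60, suspension lines read with resazurin; signal relative to control wells, capped at 0 and 100%. One two-parameter sigmoid per drug and line, fitted in a mixed model over all curves with the slope shared within a line.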

XMD14-99 = compound: COc1cc(N2CCN(C)CC2)ccc1Nc1nc(N)c(C(=O)c2c(Cl)cccc2Cl)s1 [XMD14-99]; conditions: top dose 10.24 µM; top dose inferred
Description: as §1

A-443654 = compound: Cc1n[nH]c2ccc(-c3cncc(OC[C@@H](N)Cc4c[nH]c5ccccc45)c3)cc12 [A-443654]; conditions: top dose 1.024 µM; top dose inferred
Description: as §1

Dasatinib = compound: Cc1nc(Nc2ncc(C(=O)Nc3c(C)cccc3Cl)s2)cc(N2CCN(CCO)CC2)n1 [Dasatinib]; conditions: top dose 1.28 µM
Description: as §1

AT-7519 = compound: O=C(NC1CCNCC1)c1n[nH]cc1NC(=O)c1c(Cl)cccc1Cl [AT-7519]; conditions: top dose 10.24 µM; top dose inferred
Description: as §1

Sorafenib = compound: CNC(=O)c1cc(Oc2ccc(NC(=O)Nc3ccc(Cl)c(C(F)(F)F)c3)cc2)ccn1 [Sorafenib]; conditions: top dose 4 µM
Description: as §1

Cell Line	AUC (FH535)	IC50 (FH535)	AUC (XMD14-99)	IC50 (XMD14-99)	AUC (A-443654)	IC50 (A-443654)	AUC (Dasatinib)	IC50 (Dasatinib)	AUC (AT-7519)	IC50 (AT-7519)	AUC (Sorafenib)	IC50 (Sorafenib)
SUP-T1 (T-cell lymphoblastic leukaemia, suspension)	0.659	5280 nM	0.989	> 10200 nM	0.99	> 1020 nM	0.99	> 1280 nM	0.316	206 nM	0.99	> 4000 nM
SW954 (urogenital system, adherent)	0.692	6960 nM	0.963	> 10200 nM	0.725	282 nM	0.505	82.7 nM	0.39	319 nM	0.877	> 4000 nM
SW962 (urogenital system, adherent)	0.605	4160 nM	0.975	> 10200 nM	0.724	328 nM	0.557	119 nM	0.882	> 10200 nM	0.963	> 4000 nM
TC-71 (Ewing sarcoma, adherent)	0.88	23700 nM	0.967	> 10200 nM	0.875	720 nM	0.992	> 1280 nM	0.644	1490 nM	0.966	> 4000 nM
TE-9 (oesophagus, adherent)	0.493	1910 nM	0.981	> 10200 nM	0.786	462 nM	0.778	538 nM	0.985	> 10200 nM	0.848	3170 nM
TE-12 (oesophagus, suspension)	0.575	3350 nM	0.948	> 10200 nM	0.646	178 nM	0.358	29.6 nM	0.777	5040 nM	0.86	> 4000 nM
TGBC1TKB (biliary tract, adherent)	0.627	4470 nM	0.989	> 10200 nM	0.61	128 nM	0.481	70.9 nM	0.978	> 10200 nM	0.95	> 4000 nM
U-698-M (B-cell leukaemia, suspension)	0.502	2030 nM	0.987	> 10200 nM	0.93	> 1020 nM	0.944	> 1280 nM	0.439	436 nM	0.927	> 4000 nM
UACC-257 (melanoma, adherent)	0.608	4250 nM	0.946	> 10200 nM	0.761	448 nM	0.938	> 1280 nM	0.879	> 10200 nM	0.88	> 4000 nM
WSU-DLCL2 (B-cell lymphoma, suspension)	0.918	> 32000 nM	0.988	> 10200 nM	0.842	546 nM	0.993	> 1280 nM	0.741	2700 nM	0.96	> 4000 nM
WSU-NHL (lymphoid neoplasm, suspension)	0.781	11600 nM	0.985	> 10200 nM	0.99	> 1020 nM	0.99	> 1280 nM	0.824	5130 nM	0.961	> 4000 nM
no-10 (glioma, adherent)	0.802	20000 nM	0.981	> 10200 nM	0.602	130 nM	0.677	280 nM	0.598	1260 nM	0.792	2280 nM
no-11 (glioma, adherent)	0.649	5760 nM	0.982	> 10200 nM	0.614	143 nM	0.748	–	0.768	4820 nM	0.81	2790 nM
